Reference: the supplement of paper PMC10126150
Sequences with one replicate were seen in a single cluster, so their values are uncertain.
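Further: ATP exposure 15 min at 22 °C before imaging.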

The sequences below were run on ATP (assay: switch fluorescence ratio, 500 uM ATP over buffer (Cy3 cluster intensity, sum of 5 cycles each) (fold (ratio)); higher = stronger signal-on switching upon ATP binding; sequences stand for … in TCGTCGGCAGCGTCAGATGTGTATAAGAGACAGTTTTTTTTTTTTTTTTTTTTTTTTT…TC). Details: aptamer strand: ATP DNA aptamer (quencher-CACCTGGGGGAGTATTGCGGAGGAAGG + anchor), 100 nM annealed; ATP concentration: 500 uM; one replicate.
Procedure, shortened: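 The quencher-labelled ATP aptamer, at 100 nM, was annealed to Cy3-labelled switching-strand clusters on a modified Illumina MiSeq flow-cell. The clusters were imaged in selection buffer, then after 15 min with 500 uM ATP at 22 °C, and this buffer/ATP cycle ran five times with NaOH stripping and re-annealing between runs. Per-cluster fluorescence ratios, summed target-cycle over summed buffer-cycle Cy3 intensity, were averaged per switch-domain sequence. Clusters outside 100-1000 RFU were excluded.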
TTCGGCGGCG was tested, and the switch fluorescence ratio was 1.05.
Sequence TTCGGGAAGT has a switch fluorescence ratio of 1.01.
TTCGGGTCAT was tested, and the switch fluorescence ratio was 1.01.
Work on TTCGGTCTA yielded a switch fluorescence ratio of 0.99.
TTCGGTGCTA showed a switch fluorescence ratio of 0.985.
Sequence TTCGGTGGCA has a switch fluorescence ratio of 0.961.
For TTCGGTGGT, the switch fluorescence ratio was 1.26.
TTCGTACTC showed a switch fluorescence ratio of 1.03.
Sequence TTCGTCCTTA has a switch fluorescence ratio of 0.975.
Sequence TTCGTCCTTT has a switch fluorescence ratio of 0.997.
TTCGTCGGA showed a switch fluorescence ratio of 1.03.
TTCGTCTTAT gave a switch fluorescence ratio of 1.04.
TTCGTGGTGG showed a switch fluorescence ratio of 1.03.
Sequence TTCGTTAACT has a switch fluorescence ratio of 1.02.
TTCGTTACT gave a switch fluorescence ratio of 1.01.
Sequence TTCTAAGGGC has a switch fluorescence ratio of 1.01.
Sequence TTCTAAGGTG has a switch fluorescence ratio of 1.44.
With TTCTAATCGA the switch fluorescence ratio was 0.984.
With TTCTACAGTT the switch fluorescence ratio was 1.01.
In the case of TTCTAGGTGT, the switch fluorescence ratio is reported as 1.28.
Work on TTCTAGTGCG yielded a switch fluorescence ratio of 0.997.
Sequence TTCTCACTAA has a switch fluorescence ratio of 1.05.
TTCTCGAACG showed a switch fluorescence ratio of 1.
TTCTCGCGCT gave a switch fluorescence ratio of 1.27.
With TTCTCTACGG the switch fluorescence ratio was 1.07.
TTCTCTGTG gave a switch fluorescence ratio of 0.998.
Work on TTCTCTTTCA yielded a switch fluorescence ratio of 1.02.
In the case of TTCTGCCCTC, the switch fluorescence ratio is reported as 1.05.
TTCTGCGATA showed a switch fluorescence ratio of 1.89.
Work on TTCTGCGCAG yielded a switch fluorescence ratio of 1.04.
TTCTGGGGAC was tested, and the switch fluorescence ratio was 1.92.
TTCTGGTCAC showed a switch fluorescence ratio of 1.22.
In the case of TTCTGGTTGC, the switch fluorescence ratio is reported as 0.998.
TTCTGGTTGG was tested, and the switch fluorescence ratio was 0.914.
In the case of TTCTGTCTTG, the switch fluorescence ratio is reported as 0.971.
Work on TTCTGTGCCC yielded a switch fluorescence ratio of 1.01.
TTCTGTTGTA gave a switch fluorescence ratio of 0.972.
TTCTTAAACC showed a switch fluorescence ratio of 0.997.
TTCTTATTCT was tested, and the switch fluorescence ratio was 0.96.
TTCTTCAATA was tested, and the switch fluorescence ratio was 1.02.
Work on TTCTTCCGAT yielded a switch fluorescence ratio of 1.61.
TTCTTCGCGG showed a switch fluorescence ratio of 1.08.
TTCTTGAGAG showed a switch fluorescence ratio of 0.963.
TTCTTTACTA showed a switch fluorescence ratio of 1.31.
TTCTTTCCGA gave a switch fluorescence ratio of 1.09.
Sequence TTGAAACAGG has a switch fluorescence ratio of 1.03.
For TTGAAAGGAT, the switch fluorescence ratio was 0.964.
Sequence TTGAAAGGC has a switch fluorescence ratio of 0.975.
TTGAACCTGT showed a switch fluorescence ratio of 1.02.
TTGAAGAGGG was tested, and the switch fluorescence ratio was 1.39.
TTGAAGCAT was tested, and the switch fluorescence ratio was 0.959.
In the case of TTGAAGCGAA, the switch fluorescence ratio is reported as 1.18.
For TTGAAGGTAG, the switch fluorescence ratio was 1.
With TTGAATAACG the switch fluorescence ratio was 0.942.
In the case of TTGAATCAC, the switch fluorescence ratio is reported as 1.02.
TTGAATCCG was tested, and the switch fluorescence ratio was 1.02.
TTGAATGTG showed a switch fluorescence ratio of 0.964.
Work on TTGAATTATG yielded a switch fluorescence ratio of 0.981.
TTGACAACGG was tested, and the switch fluorescence ratio was 1.03.
With TTGACATCAG the switch fluorescence ratio was 1.05.
With TTGACATTCG the switch fluorescence ratio was 0.982.
TTGACCATCC showed a switch fluorescence ratio of 1.83.
With TTGACCCCAG the switch fluorescence ratio was 0.979.
Sequence TTGACCTGGA has a switch fluorescence ratio of 1.13.
TTGACGGTAA was tested, and the switch fluorescence ratio was 1.14.
For TTGACGTCGC, the switch fluorescence ratio was 1.11.
TTGACGTGGT gave a switch fluorescence ratio of 1.
Work on TTGACTGAGA yielded a switch fluorescence ratio of 1.02.
TTGAGAACG showed a switch fluorescence ratio of 1.01.
TTGAGCCAC was tested, and the switch fluorescence ratio was 1.29.
Work on TTGAGCCCGG yielded a switch fluorescence ratio of 1.05.
TTGAGGAGCA was tested, and the switch fluorescence ratio was 0.995.
TTGAGGGAAC gave a switch fluorescence ratio of 1.02.
For TTGAGGGCGC, the switch fluorescence ratio was 0.953.
In the case of TTGAGGTCT, the switch fluorescence ratio is reported as 1.12.
TTGAGGTGGA gave a switch fluorescence ratio of 0.98.
Sequence TTGAGTCCCT has a switch fluorescence ratio of 1.04.
With TTGAGTTAGC the switch fluorescence ratio was 1.09.
With TTGATAGTG the switch fluorescence ratio was 0.987.
Work on TTGATAGTTC yielded a switch fluorescence ratio of 0.978.
TTGATATGTG gave a switch fluorescence ratio of 0.962.
TTGATCAACA gave a switch fluorescence ratio of 0.989.
TTGATCCGAT was tested, and the switch fluorescence ratio was 0.953.
For TTGATGCATG, the switch fluorescence ratio was 1.02.
For TTGATGCATT, the switch fluorescence ratio was 0.943.
TTGATGTCGG was tested, and the switch fluorescence ratio was 0.971.
For TTGATGTTCA, the switch fluorescence ratio was 0.961.
TTGATTCCCT gave a switch fluorescence ratio of 1.03.
In the case of TTGATTGACC, the switch fluorescence ratio is reported as 1.05.
Work on TTGATTTTCC yielded a switch fluorescence ratio of 0.963.
TTGCAACATG showed a switch fluorescence ratio of 0.994.
TTGCAATCCG gave a switch fluorescence ratio of 1.14.
With TTGCAATGGG the switch fluorescence ratio was 1.16.
TTGCACTTCG was tested, and the switch fluorescence ratio was 0.999.
For TTGCAGATGC, the switch fluorescence ratio was 1.07.
TTGCAGGGAG gave a switch fluorescence ratio of 0.964.
TTGCAGTTGA showed a switch fluorescence ratio of 1.06.
TTGCATGATC showed a switch fluorescence ratio of 1.52.
TTGCATTCAT showed a switch fluorescence ratio of 1.08.
TTGCCAAAAA gave a switch fluorescence ratio of 4.89.
Work on TTGCCACGCG yielded a switch fluorescence ratio of 1.
Work on TTGCCCACAC yielded a switch fluorescence ratio of 1.03.
With TTGCCTGCGC the switch fluorescence ratio was 1.08.
With TTGCGAAGAA the switch fluorescence ratio was 1.01.
In the case of TTGCGACGGC, the switch fluorescence ratio is reported as 0.992.
TTGCGCCGA showed a switch fluorescence ratio of 1.01.
TTGCGGAGAA showed a switch fluorescence ratio of 0.873.
With TTGCGGTAAC the switch fluorescence ratio was 1.01.
Work on TTGCGGTCAG yielded a switch fluorescence ratio of 1.03.
TTGCGTCGAA was tested, and the switch fluorescence ratio was 0.977.
TTGCTAAATC showed a switch fluorescence ratio of 1.01.
In the case of TTGCTAACGT, the switch fluorescence ratio is reported as 1.01.
For TTGCTAACTG, the switch fluorescence ratio was 0.999.
TTGCTACCCC showed a switch fluorescence ratio of 1.23.
Sequence TTGCTACCCG has a switch fluorescence ratio of 1.05.
TTGCTATAGG gave a switch fluorescence ratio of 0.988.
Work on TTGCTCATG yielded a switch fluorescence ratio of 1.
For TTGCTCATTT, the switch fluorescence ratio was 1.12.
Work on TTGCTCCAGT yielded a switch fluorescence ratio of 1.01.
In the case of TTGCTCCGGT, the switch fluorescence ratio is reported as 1.01.
Work on TTGCTGCATG yielded a switch fluorescence ratio of 1.07.
TTGCTGCCCG was tested, and the switch fluorescence ratio was 0.952.
In the case of TTGCTGTGG, the switch fluorescence ratio is reported as 1.
TTGCTTTCAG gave a switch fluorescence ratio of 0.948.
In the case of TTGCTTTGCC, the switch fluorescence ratio is reported as 1.1.
With TTGGAACTTT the switch fluorescence ratio was 1.05.
Sequence TTGGAAGTT has a switch fluorescence ratio of 1.
With TTGGACAGCA the switch fluorescence ratio was 1.03.
In the case of TTGGACCCCG, the switch fluorescence ratio is reported as 0.962.
TTGGACGGAG was tested, and the switch fluorescence ratio was 0.909.
For TTGGACGTCC, the switch fluorescence ratio was 1.03.
Work on TTGGAGAAGT yielded a switch fluorescence ratio of 0.938.
Work on TTGGAGATCC yielded a switch fluorescence ratio of 0.989.
TTGGAGATGA gave a switch fluorescence ratio of 1.04.
For TTGGAGATTA, the switch fluorescence ratio was 1.01.
For TTGGAGCGGA, the switch fluorescence ratio was 1.14.
For TTGGAGGTC, the switch fluorescence ratio was 1.03.
With TTGGAGGTGT the switch fluorescence ratio was 1.04.
Work on TTGGAGTCGT yielded a switch fluorescence ratio of 0.973.
Work on TTGGAGTTAT yielded a switch fluorescence ratio of 1.
Work on TTGGATTCGA yielded a switch fluorescence ratio of 0.98.
TTGGATTGTC showed a switch fluorescence ratio of 1.02.
TTGGATTTTA showed a switch fluorescence ratio of 0.993.
TTGGCCTAGA was tested, and the switch fluorescence ratio was 1.01.
With TTGGCTAT the switch fluorescence ratio was 1.01.
TTGGCTATC showed a switch fluorescence ratio of 1.05.
TTGGCTTAGC showed a switch fluorescence ratio of 0.987.
For TTGGCTTTCA, the switch fluorescence ratio was 0.98.
TTGGGAGTTT was tested, and the switch fluorescence ratio was 1.14.
TTGGGATGAA was tested, and the switch fluorescence ratio was 0.959.
In the case of TTGGGCATTA, the switch fluorescence ratio is reported as 0.999.
With TTGGGCGT the switch fluorescence ratio was 1.04.
TTGGGCTGTA was tested, and the switch fluorescence ratio was 1.01.
TTGGGGAGCA gave a switch fluorescence ratio of 0.976.
Work on TTGGGGAGCG yielded a switch fluorescence ratio of 1.15.
TTGGGGCTAT gave a switch fluorescence ratio of 2.28.
With TTGGGTCTCA the switch fluorescence ratio was 0.954.
In the case of TTGGGTTAT, the switch fluorescence ratio is reported as 1.06.
Work on TTGGGTTCAT yielded a switch fluorescence ratio of 1.
TTGGTAGAAG was tested, and the switch fluorescence ratio was 1.06.
TTGGTAGGAA showed a switch fluorescence ratio of 1.11.
In the case of TTGGTATCCT, the switch fluorescence ratio is reported as 1.02.
With TTGGTATGCC the switch fluorescence ratio was 0.976.
TTGGTCAGCA gave a switch fluorescence ratio of 1.1.
With TTGGTCTTGC the switch fluorescence ratio was 1.08.
TTGGTGATA was tested, and the switch fluorescence ratio was 0.984.
Sequence TTGGTGGAAA has a switch fluorescence ratio of 1.03.
TTGGTGTGGT gave a switch fluorescence ratio of 0.995.
TTGGTTAACC showed a switch fluorescence ratio of 0.993.
In the case of TTGGTTATC, the switch fluorescence ratio is reported as 0.989.
Sequence TTGGTTCACT has a switch fluorescence ratio of 1.02.
In the case of TTGGTTGCGA, the switch fluorescence ratio is reported as 1.07.
TTGGTTTGAT was tested, and the switch fluorescence ratio was 0.992.
TTGTAAATCC showed a switch fluorescence ratio of 1.09.
TTGTAACAGG gave a switch fluorescence ratio of 1.06.
TTGTAAGGCA was tested, and the switch fluorescence ratio was 1.08.
For TTGTAGCGAC, the switch fluorescence ratio was 1.06.
TTGTAGTGTG was tested, and the switch fluorescence ratio was 0.973.
Sequence TTGTATGATG has a switch fluorescence ratio of 0.985.
TTGTATGCAC was tested, and the switch fluorescence ratio was 0.981.
With TTGTATGTGA the switch fluorescence ratio was 0.992.
TTGTATGTGC showed a switch fluorescence ratio of 0.995.
With TTGTATTTAG the switch fluorescence ratio was 0.986.
Sequence TTGTCAATCA has a switch fluorescence ratio of 1.02.
With TTGTCCGGAA the switch fluorescence ratio was 1.52.
TTGTCGCTAG gave a switch fluorescence ratio of 0.958.
TTGTCTATTT gave a switch fluorescence ratio of 0.975.
TTGTCTCACA gave a switch fluorescence ratio of 0.989.
TTGTCTCATG gave a switch fluorescence ratio of 0.981.
Work on TTGTGAAGA yielded a switch fluorescence ratio of 0.995.
Work on TTGTGAAGAC yielded a switch fluorescence ratio of 0.987.
TTGTGAGATG gave a switch fluorescence ratio of 1.01.
TTGTGATGAT showed a switch fluorescence ratio of 1.08.
With TTGTGCCCCT the switch fluorescence ratio was 1.
In the case of TTGTGGATGA, the switch fluorescence ratio is reported as 1.02.
In the case of TTGTGGATTC, the switch fluorescence ratio is reported as 0.997.
Sequence TTGTGGTAGC has a switch fluorescence ratio of 1.01.
TTGTGGTCT showed a switch fluorescence ratio of 0.974.
Work on TTGTGGTGGA yielded a switch fluorescence ratio of 1.07.
TTGTGGTGTA showed a switch fluorescence ratio of 1.01.
For TTGTGTGGAA, the switch fluorescence ratio was 1.03.
